Results published in PMC4336329 (PLoS ONE, 2015).
The campaign covered roughly 310,000 compounds. About 14,000 (4.5%) showed an effect of 50% or more. Effects have a minus sign here. This is one part of the list.
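Also: peak tail current of the secondary pulse compared with the same well before compound.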

The compounds below were run against human ether-à-go-go-related gene (hERG) potassium channel (human, UniProt Q12809) (assay: primary screen, population patch clamp on CHO cells stably expressing hERG).
Chain of human ether-à-go-go-related gene (hERG) potassium channel (Q12809 whole entry, looked up): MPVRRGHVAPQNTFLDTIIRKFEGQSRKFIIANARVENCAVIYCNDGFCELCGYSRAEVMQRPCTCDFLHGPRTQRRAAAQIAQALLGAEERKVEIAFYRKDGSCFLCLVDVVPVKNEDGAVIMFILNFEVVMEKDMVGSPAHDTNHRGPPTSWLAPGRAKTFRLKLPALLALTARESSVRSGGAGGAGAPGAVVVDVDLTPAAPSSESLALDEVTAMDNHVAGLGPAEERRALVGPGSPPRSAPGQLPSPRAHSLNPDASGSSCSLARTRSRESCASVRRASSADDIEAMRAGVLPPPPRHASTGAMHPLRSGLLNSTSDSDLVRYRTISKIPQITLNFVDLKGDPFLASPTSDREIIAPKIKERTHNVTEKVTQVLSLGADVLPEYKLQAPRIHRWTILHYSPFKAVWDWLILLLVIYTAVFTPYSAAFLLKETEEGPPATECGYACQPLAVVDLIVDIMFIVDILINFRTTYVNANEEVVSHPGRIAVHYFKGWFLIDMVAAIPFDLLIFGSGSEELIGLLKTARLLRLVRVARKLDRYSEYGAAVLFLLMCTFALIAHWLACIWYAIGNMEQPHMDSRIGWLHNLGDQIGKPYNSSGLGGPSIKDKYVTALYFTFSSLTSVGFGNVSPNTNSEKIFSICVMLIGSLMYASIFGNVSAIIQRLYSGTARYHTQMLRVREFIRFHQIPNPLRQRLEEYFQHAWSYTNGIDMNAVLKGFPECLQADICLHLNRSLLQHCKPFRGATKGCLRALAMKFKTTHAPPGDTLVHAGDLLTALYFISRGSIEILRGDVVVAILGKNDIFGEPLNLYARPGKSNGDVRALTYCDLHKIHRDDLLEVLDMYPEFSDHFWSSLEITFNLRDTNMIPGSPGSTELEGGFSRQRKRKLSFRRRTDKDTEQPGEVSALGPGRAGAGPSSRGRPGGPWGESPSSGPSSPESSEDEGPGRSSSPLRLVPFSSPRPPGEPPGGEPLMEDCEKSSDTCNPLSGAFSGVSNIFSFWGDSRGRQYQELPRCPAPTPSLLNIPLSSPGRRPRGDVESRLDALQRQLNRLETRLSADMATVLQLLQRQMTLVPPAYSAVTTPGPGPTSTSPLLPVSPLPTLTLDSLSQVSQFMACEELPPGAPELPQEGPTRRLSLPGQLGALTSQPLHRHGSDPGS
`Cc1ccc2[nH]c(=O)c3cc(C(=O)N(C)C4CCCCC4)sc3c2c1` was tested, and the “hERG current change (%, negative = inhibition) at 10uM” value was 19%. With `CN(C)c1ccc(S(=O)(=O)N2CCCCC2)cc1NC(=O)C1=NN(c2ccccc2)C(=O)CC1` the “hERG current change (%, negative = inhibition) at 10uM” value was -21.8%. In the case of `Cc1ccc(-c2cc(C(=O)OCn3nnc4ccccc4c3=O)c3ccccc3n2)cc1`, the “hERG current change (%, negative = inhibition) at 10uM” value was 20.2%. For `CCOc1ccc(C(=O)N(CC)CC(=O)Nc2ccc3c(c2)OCCO3)cc1`, the “hERG current change (%, negative = inhibition) at 10uM” value was -11.4%. `Cc1cc(=O)n(C)c(=O)n1CCCCCCOc1ccc([N+](=O)[O-])cc1` was tested, and the “hERG current change (%, negative = inhibition) at 10uM” value was -63.9%. For `COc1ccc(NC(=O)N[C@@H](CCSC)C(=O)O)cc1Cl`, the “hERG current change (%, negative = inhibition) at 10uM” value was -3.45%. `Cc1cc(C(=O)NP(=O)(N2CCOCC2)N2CCOCC2)c(C)n1-c1ccc(N(C)C)cc1` was tested, and the “hERG current change (%, negative = inhibition) at 10uM” value was 5.48%. With `COCCCN(C(=O)Cn1ncc2c(=O)oc3ccc(C)cc3c21)C(C)c1ccncc1` (stereo not shown) the “hERG current change (%, negative = inhibition) at 10uM” value was -45.3%. With `COC(=O)c1ccc(NC(=O)Cn2nnc(-c3cccs3)n2)cc1` the “hERG current change (%, negative = inhibition) at 10uM” value was 16.2%. For `Cc1nn(-c2ccc(N3CCOCC3)nn2)c(C)c1CCC(=O)Nc1ccccc1`, the “hERG current change (%, negative = inhibition) at 10uM” value was 12.6%. `CC(C)C(NC(=S)Nc1ccccc1)C(=O)O` (stereo not shown) was tested, and the “hERG current change (%, negative = inhibition) at 10uM” value was 5.62%. With `Cc1c(Cl)cccc1NC(=S)NCc1ccc2c(c1)OCO2` the “hERG current change (%, negative = inhibition) at 10uM” value was -7.41%. In the case of `O=C(CN(C(=O)c1csnn1)c1ccc(Br)cc1)NC1CCCC1`, the “hERG current change (%, negative = inhibition) at 10uM” value was 3.32%. For `Oc1ccc(/C=N/Nc2ncnc3c2ncn3Cc2ccccc2)cc1O`, the “hERG current change (%, negative = inhibition) at 10uM” value was -16.8%. In the case of `O=C(N/N=C/c1ccc(O)cc1)Nc1cccc2nsnc12`, the “hERG current change (%, negative = inhibition) at 10uM” value was -23.8%. With `CC(C)(C)NC(=O)CN(Cc1ccc2c(c1)OCO2)C(=O)CNS(=O)(=O)c1ccc(F)cc1` the “hERG current change (%, negative = inhibition) at 10uM” value was 13.2%. In the case of `O=C(N/C(=C\c1ccc(Br)cc1)C(=O)N1CCOCC1)c1ccc([N+](=O)[O-])cc1`, the “hERG current change (%, negative = inhibition) at 10uM” value was -75.5%. In the case of `Fc1cccc(Cl)c1C1Nc2cccc3cccc(c23)N1`, the “hERG current change (%, negative = inhibition) at 10uM” value was -26.2%. In the case of `CCOC(=O)CCN=Cc1c(O)n(-c2ccc(Br)cc2)c(=O)[nH]c1=O`, the “hERG current change (%, negative = inhibition) at 10uM” value was 0.12%. With `CCCn1c(CN2CCN(C(=O)OCC)CC2)nc2cc(NC(=O)C(C)C)ccc21` the “hERG current change (%, negative = inhibition) at 10uM” value was 3.39%. In the case of `O=C(NCCC1=CCCCC1)C(=O)NCC1OCCCN1S(=O)(=O)c1ccc(F)cc1` (stereo not shown), the “hERG current change (%, negative = inhibition) at 10uM” value was -9.66%. For `COc1ccc(C(C(=O)NCC2CCCO2)N(C(=O)CNC(=O)c2cccs2)c2ccc(C(C)=O)cc2)cc1OC` (stereo not shown), the “hERG current change (%, negative = inhibition) at 10uM” value was 22.8%. `CC(C)N(C(=O)Nc1ccc2nccnc2c1)C(C)C` was tested, and the “hERG current change (%, negative = inhibition) at 10uM” value was 9.1%. With `COc1ccc(-n2c(SCC(=O)Nc3ccccc3C)nc(O)c(Cc3ccccc3)c2=O)cc1` the “hERG current change (%, negative = inhibition) at 10uM” value was 14.8%. For `O=C(COc1coc(CN2CCN(c3ccccc3)CC2)cc1=O)Nc1ccc(F)cc1`, the “hERG current change (%, negative = inhibition) at 10uM” value was 4.23%. In the case of `O=C(CN1CCN(S(=O)(=O)c2ccccc2F)CC1)NC1CCCC1`, the “hERG current change (%, negative = inhibition) at 10uM” value was 6.2%. For `CCN(Cc1ccc(C#CCCO)cc1)CC1CCCN(CCc2cccc(OC)c2)C1` (stereo not shown), the “hERG current change (%, negative = inhibition) at 10uM” value was -58.5%. In the case of `Cc1cc(C)n(C(=O)CNC(=O)c2cccs2)n1`, the “hERG current change (%, negative = inhibition) at 10uM” value was 13.7%. In the case of `CC(C)c1ccc(N2C(=O)NC(=O)/C(=C/c3cnc(-c4ccccc4)nc3)C2=O)cc1`, the “hERG current change (%, negative = inhibition) at 10uM” value was -1.15%. `O=C(CN(Cc1ccccc1)C(=O)CCC(=O)Nc1nccs1)NCc1ccccc1` was tested, and the “hERG current change (%, negative = inhibition) at 10uM” value was -4.27%. With `Cc1cc(C)cc(N2CCCn3c2nc2c3c(=O)n(CCN3CCOCC3)c(=O)n2C)c1` the “hERG current change (%, negative = inhibition) at 10uM” value was -18.1%. For `OCCCc1nc2ccccc2[nH]1`, the “hERG current change (%, negative = inhibition) at 10uM” value was 3.53%. With `COc1ccc(NC(=O)c2cnc(SC)nc2C)c(OC)c1` the “hERG current change (%, negative = inhibition) at 10uM” value was 9.57%. With `COCC1CCN(C(=O)C2CCC(=O)N(C3CCCCCC3)C2)CC1` (stereo not shown) the “hERG current change (%, negative = inhibition) at 10uM” value was 5.5%. `CN(C)S(=O)(=O)Oc1ccccc1C(=O)Nc1ccc(F)cc1` was tested, and the “hERG current change (%, negative = inhibition) at 10uM” value was 6.76%. For `Fc1c(F)c(F)c(N/N=C/c2c[nH]c3ccccc23)c(F)c1F`, the “hERG current change (%, negative = inhibition) at 10uM” value was 12.6%. In the case of `COC(=O)c1ccc(NC(=O)c2cccc(C)c2[N+](=O)[O-])cc1`, the “hERG current change (%, negative = inhibition) at 10uM” value was 9.73%. `O=C(Nc1nn[nH]n1)c1ccc(S(=O)(=O)N2CCCCC2)cc1` was tested, and the “hERG current change (%, negative = inhibition) at 10uM” value was 38%. In the case of `O=C(Cc1ccsc1)N1CCc2c([nH]c3ccccc23)C1c1ccccn1` (stereo not shown), the “hERG current change (%, negative = inhibition) at 10uM” value was 4.87%. For `O=C1CSC(=S)N1c1ccc(O)cc1`, the “hERG current change (%, negative = inhibition) at 10uM” value was 6.3%. `COc1ccc(C(=O)CN2CCN(c3ccc(F)cc3)CC2)cc1` was tested, and the “hERG current change (%, negative = inhibition) at 10uM” value was -38.3%. `Cn1nccc1CNC(=O)c1ccnn1C` was tested, and the “hERG current change (%, negative = inhibition) at 10uM” value was 14.9%. `COC(=O)[C@H](Cc1ccccc1)NC(=O)N1Cc2ccccc2C[C@H]1C(=O)OC` was tested, and the “hERG current change (%, negative = inhibition) at 10uM” value was -1.29%. With `Cc1c2c(n3c(nc4ccccc43)c1C#N)N(CCCN(C)C)CC2` the “hERG current change (%, negative = inhibition) at 10uM” value was -15.3%. For `CCNC(=O)c1c(O)c2c([nH]c1=O)CCCC2`, the “hERG current change (%, negative = inhibition) at 10uM” value was 15.6%. For `CCOC(=O)c1nc(NCc2cccc(OC)c2)c2ccccc2n1`, the “hERG current change (%, negative = inhibition) at 10uM” value was -13.5%. `CSc1nc(C)cc(-n2cc(F)c(=O)[nH]c2=O)n1` was tested, and the “hERG current change (%, negative = inhibition) at 10uM” value was -6.23%. In the case of `Cc1cccc(NC(=S)NNC(=O)c2csc3c2CCC(C)C3)c1` (stereo not shown), the “hERG current change (%, negative = inhibition) at 10uM” value was -2.63%. With `COc1ccccc1NC(=O)CC1SC(=N)N(c2ccccc2)C1=O` (stereo not shown) the “hERG current change (%, negative = inhibition) at 10uM” value was 0.0676%. In the case of `Cc1ccc2c(=O)c(C(=O)NCc3cccs3)c[nH]c2c1`, the “hERG current change (%, negative = inhibition) at 10uM” value was 3.23%. For `CC(C)c1ccccc1NC(=O)COC(=O)c1ccc(Cl)c(S(=O)(=O)N2CCCCCC2)c1`, the “hERG current change (%, negative = inhibition) at 10uM” value was 20.9%. In the case of `Cc1c(C)c2ccc(OCC(=O)N3CCC(C(=O)O)(c4ccccc4)CC3)cc2oc1=O`, the “hERG current change (%, negative = inhibition) at 10uM” value was -2.07%. With `CCC(=O)NC(c1ccc(C)cc1)c1cc([N+](=O)[O-])c2cccnc2c1O` (stereo not shown) the “hERG current change (%, negative = inhibition) at 10uM” value was 35.7%. `CCOc1ccccc1CN1C(=O)NC(C)(c2ccccc2)C1=O` (stereo not shown) was tested, and the “hERG current change (%, negative = inhibition) at 10uM” value was -3.52%. For `COc1cc(/C=N/NC(=O)CSc2ccccn2)ccc1OC(C)C`, the “hERG current change (%, negative = inhibition) at 10uM” value was -1.7%.
